For 16 compounds, activity change, negative = inhibition results are on record in PubChem BioAssay AID1745853 (National Center for Advancing Translational Sciences (NCATS), 2022).

Assay in all cases: Primary Screen for Target Class Profiling of Small Molecule Inhibitors of Methyltransferases
Assay [1] deals with Glycine N-methyltransferase (Homo sapiens) (UniProt Q14749). The note with it: purified enzyme, MTase-Glo SAH luminescence; measured here: GNMT inhibition; at 40 µM; stronger effect = lower value. The gist of the method: (§1)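 Each enzyme was reacted with SAM and its substrate, with compounds tested once at 40 uM; SAH formed was read by MTase-Glo luminescence.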
The target in assay [2] is Guanidinoacetate N-methyltransferase (Homo sapiens) (UniProt Q14353). The note with it: purified enzyme, MTase-Glo SAH luminescence; measured here: GAMT inhibition; at 40 µM; stronger effect = lower value. The gist of the method: as §1
For assay [3], the target named is Histamine N-methyltransferase (Homo sapiens) (UniProt P50135). The note with it: purified enzyme, MTase-Glo SAH luminescence; measured here: HNMT inhibition; at 40 µM; stronger effect = lower value. The gist of the method: as §1
Assay [4] deals with Nicotinamide N-methyltransferase (Homo sapiens) (UniProt P40261). Conditions: purified enzyme, MTase-Glo SAH luminescence; measured here: NNMT inhibition; at 40 µM; stronger effect = lower value. The gist of the method: as §1
Assay [5] deals with Phenylethanolamine N-methyltransferase (Homo sapiens) (UniProt P11086). Conditions: purified enzyme, MTase-Glo SAH luminescence; measured here: PNMT inhibition; at 40 µM; stronger effect = lower value. An outline of the steps:
as §1

Some of the results follow. Shown are side measurements of this screen, not its main read-out; they come without a call.
% is set by controls: 0 for no effect and ±100 for the full control effect.

In the case of `CC1=NOC2(CCN(Cc3ccncc3)CC2)C1`, the activity change, negative = inhibition in assay [1] is -1.78%; in assay [2] it was -0.223%; in assay [3], 0.797%; in assay [4], -3.61%; in assay [5], -3.08%.
The corresponding values for `Cc1ccc(C(=O)C(C)n2nc3n(C)c(=O)c4ccc(C(=O)NC5CCCCC5)cc4n3c2=O)cc1C` (configuration not stated) are 0.475%, 2.34%, 6.25%, -5.13% and -4.41%.
Taken in the same sequence, the figures for `COC(=O)c1ncn2c1C(=O)N(C1CC1)C(C)(C(=O)NCc1ccc(C)cc1)C2` (configuration not stated) were -5.71%, 2.52%, -4.41%, -8.17% and -5.38%.
In the case of `C=C1CCC2(OC1)OC1CC3C4CC=C5CC(O)CC(O[C@@H]6OC[C@H](OC(=O)C(O)C(C)CC)[C@H](O)[C@H]6O[C@@H]6O[C@@H](C)[C@H](O)[C@@H](O)[C@H]6O)C5(C)C4CCC3(C)C1C2C` (some centres not stated), the activity change, negative = inhibition in assay [1] was 5.2%; in assay [2], 11.3%; in assay [3] it was 9.54%; in assay [4] it was 1.16%; in assay [5], 0.483%.
Consider `Cc1cccc(N2C(=O)c3ccc(-c4ccco4)n3CC2(C)C(=O)NC2CCCC2)c1C` (configuration not stated), for which the activity change, negative = inhibition in assay [1] is 1.99%; in assay [2], 0.055%; in assay [3], 2.86%; in assay [4], 0.88%; in assay [5] it was -1.83%.
As to `COc1ccccc1C(=O)N1CCC(C(=O)N2CCC(N3Cc4ccccc4C3=O)CC2)CC1`, the activity change, negative = inhibition is -4.37% in assay [1]; -5.33% in assay [2]; -4.6% in assay [3]; -13.4% in assay [4]; -6.7% in assay [5].
Take `CC1(C)CCCC2(C)C3=C(C(=O)OC3O)C(O)CC12` (configuration not stated): the activity change, negative = inhibition in assay [1] was 0.85%; in assay [2], 8.3%; in assay [3] it was 9.46%; in assay [4], -6.55%; in assay [5] it was 3.75%.
The corresponding values for `Cc1ccc(S(=O)(=O)N2CCCCCC2c2nnc(C)o2)c(C)c1` (configuration not stated) are -3.59%, -1%, 1.3%, -11% and -2.09%.
Taken in the same sequence, the figures for `CC(=O)NCc1cn[nH]c1-c1ccc(Cl)cc1` were -1.36%, -2.51%, 0.389%, -0.1% and -2.72%.
The corresponding values for `COc1ccccc1-c1ccnc(N[C@H]2CO[C@H]3[C@@H]2OC[C@@H]3NS(=O)(=O)c2cccs2)n1` are -1.72%, -3.37%, -0.368%, -4.48% and -7.88%.
With `C1CCC[C@H]2CCCN3CC[C@@H](CCCCCC[C@@H]4CCCN5CC[C@@H](CC1)O[C@@H]45)O[C@@H]23`, the activity change, negative = inhibition turned out to be 0.338% in assay [1] and 10.8% in assay [3].
With `CCc1ccc(CNC(=O)c2ccc3c(=O)nc4c(-c5cccc(F)c5)n[nH]n4c3c2)cc1`, the activity change, negative = inhibition in assay [1] was 0.636%; in assay [2] it was 4.05%; in assay [3], 5.16%; in assay [4] it was -7.36%; in assay [5] it was -5.24%.
The corresponding values for `CCOC(=O)c1cc2n(n1)CC(C)(C(=O)NCCC(C)C)N(CCc1cccs1)C2=O` (configuration not stated) are 1.05%, 4.51%, 5.03%, -0.534% and 0.199%.
The corresponding values for `O=C(c1n[nH]c2ccccc12)N1CCC2(CC1)N(c1ccccc1)C(=O)CS2=O` (configuration not stated) are -3.62%, -0.508%, 1.25%, -2.13% and -0.848%.
Taken in the same sequence, the figures for `NC[C@@H]1O[C@H](c2ccccc2)Cc2c1ccc(O)c2O` were -16.5%, 10.2%, -25.2%, -5.06% and 3.55%.
Consider `CC1(CO)CC[C@]2(C(=O)O[C@@H]3O[C@H](CO)[C@@H](O)[C@H](O)[C@H]3O)CC[C@]3(C)C(=CCC4[C@@]5(C)CC[C@H](O[C@@H]6O[C@H](C(=O)O)[C@@H](O)[C@H](O)[C@H]6O)C(C)(C)C5CC[C@]43C)C2C1` (some centres not stated), for which the activity change, negative = inhibition was -0.915% in assay [1]; -2.36% in assay [2]; 5.1% in assay [3]; -11.1% in assay [4]; -8.37% in assay [5].
